Assay results from paper PMC7507369.
These are yes or no findings as the source states them, for the method shown. Binding seen in cells or lysates may run through a third protein. Some entries that bind do so weakly or less than the wild type. Sequences can lack the tags named with a protein. Each block holds one binder with its values, some of them ahead of it.

Amino acid sequences for entries named in this document (tags omitted). Residues count along the entry.
UniProt O15455, residues 24-904: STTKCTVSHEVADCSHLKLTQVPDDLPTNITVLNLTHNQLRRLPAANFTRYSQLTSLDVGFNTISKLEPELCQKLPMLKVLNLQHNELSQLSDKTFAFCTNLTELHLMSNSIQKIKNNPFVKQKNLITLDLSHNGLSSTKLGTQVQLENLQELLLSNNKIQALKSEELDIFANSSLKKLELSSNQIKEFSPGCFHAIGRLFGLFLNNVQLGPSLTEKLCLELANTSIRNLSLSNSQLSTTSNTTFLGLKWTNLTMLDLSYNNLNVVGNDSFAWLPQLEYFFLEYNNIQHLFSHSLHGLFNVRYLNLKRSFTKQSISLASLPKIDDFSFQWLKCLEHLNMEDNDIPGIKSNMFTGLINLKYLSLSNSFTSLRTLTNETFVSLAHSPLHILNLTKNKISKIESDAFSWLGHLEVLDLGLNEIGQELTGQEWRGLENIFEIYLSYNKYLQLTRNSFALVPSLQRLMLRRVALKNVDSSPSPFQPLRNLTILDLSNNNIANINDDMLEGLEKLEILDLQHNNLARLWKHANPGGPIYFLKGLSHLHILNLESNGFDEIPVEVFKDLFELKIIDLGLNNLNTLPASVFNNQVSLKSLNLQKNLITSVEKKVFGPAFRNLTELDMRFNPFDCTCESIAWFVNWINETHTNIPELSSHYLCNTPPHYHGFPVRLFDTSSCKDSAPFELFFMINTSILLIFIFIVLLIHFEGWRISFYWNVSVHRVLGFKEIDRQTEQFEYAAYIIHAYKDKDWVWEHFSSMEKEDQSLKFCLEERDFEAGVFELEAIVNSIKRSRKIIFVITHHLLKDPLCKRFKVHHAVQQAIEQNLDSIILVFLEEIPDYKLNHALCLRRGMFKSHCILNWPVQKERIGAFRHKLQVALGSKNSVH

Experiments:
HA-p62, Q13501 = assay: co-IP; HA-p62 and Flag-tagged RIG-I, TLR3 or cGAS in the absence and presence of GFP or GFP-IRGM, HEK293T cell lysates; p62 immunoprecipitated; details: remark: other sources report otherwise
GST-IRGM (human) = target: T1, GST-IRGM (human) (UniProt A1A4Y4); assay: pull-down; GST or GST-IRGM on Glutathione Sepharose beads incubated with in vitro translated [35S]-labeled Myc-tagged proteins; NETN-E buffer (50 mM Tris pH 8.0, 100 mM NaCl, 6 mM EDTA, 6 mM EGTA, 0.5% NP-40, 1 mM DTT), 2 h at 4°C; autoradiography; only the target purified
T1 sequence: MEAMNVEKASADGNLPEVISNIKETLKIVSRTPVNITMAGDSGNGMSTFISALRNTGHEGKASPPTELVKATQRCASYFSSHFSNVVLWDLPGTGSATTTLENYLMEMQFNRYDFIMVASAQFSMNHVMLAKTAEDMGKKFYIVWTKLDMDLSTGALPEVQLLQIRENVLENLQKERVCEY

HA-p62 = HA-p62 (UniProt Q13501); assay: co-IP; HA-p62 and Flag-tagged RIG-I, TLR3 or cGAS in the absence and presence of GFP or GFP-IRGM, HEK293T cell lysates; p62 immunoprecipitated
Flag-RIG-I = target: T2, Flag-RIG-I (UniProt O95786); assay: co-IP; GFP-IRGM and Flag-tagged proteins overexpressed in HEK293T, cell lysates; NP-40 lysis buffer, protein G dynabeads, 4°C; reverse co-IPs too; for cGAS, RIG-I and TLR3 also in control siRNA or p62 siRNA transfected cells
T2 sequence: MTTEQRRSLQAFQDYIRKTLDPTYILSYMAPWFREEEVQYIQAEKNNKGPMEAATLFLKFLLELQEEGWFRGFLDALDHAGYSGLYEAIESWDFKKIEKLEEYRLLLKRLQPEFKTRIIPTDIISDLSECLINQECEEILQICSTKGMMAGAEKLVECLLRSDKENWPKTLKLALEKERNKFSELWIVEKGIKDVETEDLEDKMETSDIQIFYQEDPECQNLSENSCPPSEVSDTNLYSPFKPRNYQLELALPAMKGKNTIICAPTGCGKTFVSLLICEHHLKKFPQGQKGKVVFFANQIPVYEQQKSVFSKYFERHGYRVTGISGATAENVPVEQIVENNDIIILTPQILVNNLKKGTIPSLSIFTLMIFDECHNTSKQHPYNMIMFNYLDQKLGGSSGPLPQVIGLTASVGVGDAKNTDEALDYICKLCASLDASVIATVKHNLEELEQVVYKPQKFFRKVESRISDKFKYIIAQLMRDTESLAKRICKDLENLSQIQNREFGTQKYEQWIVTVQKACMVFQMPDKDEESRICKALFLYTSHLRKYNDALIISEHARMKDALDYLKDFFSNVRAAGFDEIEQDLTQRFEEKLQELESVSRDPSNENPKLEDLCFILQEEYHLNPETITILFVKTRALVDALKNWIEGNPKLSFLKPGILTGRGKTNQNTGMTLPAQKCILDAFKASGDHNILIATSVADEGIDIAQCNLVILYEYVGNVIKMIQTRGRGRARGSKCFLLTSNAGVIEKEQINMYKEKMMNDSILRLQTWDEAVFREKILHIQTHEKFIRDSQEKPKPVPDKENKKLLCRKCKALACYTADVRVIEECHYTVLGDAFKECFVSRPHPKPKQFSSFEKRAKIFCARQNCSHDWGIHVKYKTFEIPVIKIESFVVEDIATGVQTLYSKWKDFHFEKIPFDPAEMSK

Flag-TLR3 = Flag-TLR3 (UniProt O15455); assay: as above
Flag-cGAS = Flag-cGAS (UniProt Q8N884); assay: as above

- binding (HA-p62, Q13501): binds
B1: Flag-cGAS, Q8N884 1-522 (protein)
chain: MQPWHGKAMQRASEAGATAPKASARNARGAPMDPTESPAAPEAALPKAGKFGPARKSGSRQKKSAPDTQERPPVRATGARAKKAPQRAQDTQPSDATSAPGAEGLEPPAAREPALSRAGSCRQRGARCSTKPRPPPGPWDVPSPGLPVSAPILVRRDAAPGASKLRAVLEKLKLSRDDISTAAGMVKGVVDHLLLRLKCDSAFRGVGLLNTGSYYEHVKISAPNEFDVMFKLEVPRIQLEEYSNTRAYYFVKFKRNPKENPLSQFLEGEILSASKMLSKFRKIIKEEINDIKDTDVIMKRKRGGSPAVTLLISEKISVDITLALESKSSWPASTQEGLRIQNWLSAKVRKQLRLKPFYLVPKHAKEGNGFQEETWRLSFSHIEKEILNNHGKSKTCCENKEEKCCRKDCLKLMKYLLEQLKERFKDKKHLDKFSSYHVKTAFFHVCTQNPQDSQWDRKDLGLCFDNCVTYFLQCLRTEKLENYFIPEFNLFSSNLIDKRSKEFLTKQIEYERNNEFPVFDEF

- binding (GST-IRGM (human)): binds weakly
B2: Myc-RIG-I, in vitro translated (protein, UniProt O95786 1-925)
chain: T2 sequence
modifications: [35S]-labeled

- binding (HA-p62): binds
- binding (Flag-RIG-I): binds
- binding (Flag-TLR3): binds
- binding (Flag-cGAS): binds
B3: GFP-IRGM (protein, UniProt A1A4Y4 1-181)
chain: T1 sequence
